Some of the results follow.
System: T1, C. trachomatis L2/434/Bu expressing GFP (CTL2-GFP)
T1 construct: L2/434/Bu GFP intracellular growth in HeLa cells
Design: species or system HeLa; C. trachomatis total inclusion area by high-content imaging, normalised to DMSO
Conditions: total inclusion area; 28.5 h, 10 µM; inhibitor
How it was run: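 Imaging read-out: GFP inclusions and Hoechst nuclei captured by high-content imaging after fixation. Inclusion area/number = chlamydial growth; nuclei count = host cell viability. MIC calculated per earlier method.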

Row | SMILES | % of control remaining
1 | CCn1c(CN2CCCC2c2nc(N(C)C)ncc2-c2cccc(F)c2)nc2ccccc21 (centres unmarked) [CBK286500] | 67.8141
2 | COc1ccccc1C1OC(=O)CC1C(=O)N1CCN(c2ccc(Cl)cc2)CC1 (centres unmarked) [CBK091332] | 104.405
3 | CCOc1ccc(-c2ccnc(N[C@H]3CC[C@@H](N)CC3)n2)cc1C(=O)O [CBK307104] | 69.2184
4 | Cc1ccc(C#N)c(NS(=O)(=O)c2cc(C)c(Cl)cc2C)c1 [CBK045250] | 67.3691
5 | COc1cc(CN2CCN(Cc3ccccc3F)CC2)cc(OC)c1O [CBK264219] | 126.184
6 | CN(CCOC(=O)c1cccs1)C(C)(C)C [CBK027559C] | 105.525
7 | CC1CCc2c(sc(NC(=O)CCN3C(=O)c4ccccc4C3=O)c2C(N)=O)C1 (centres unmarked) [CBK263667] | 79.5797
8 | O=C(Cn1nnc2ccccc21)Nc1ccc(Cl)cn1 [CBK296068] | 61.9979
9 | CC(NC(=O)c1cc2ccccc2c(=O)[nH]1)c1ccc(-c2ccccc2)cc1 (centres unmarked) [CBK297936] | 55.8701
10 | CS(=O)(=O)c1ccc(-c2ccc(C(=O)N3CCN(Cc4ccc(F)c(F)c4)CC3)nc2)cc1 [CBK160485] | 81.2548
11 | CC[C@H]1CN(C(=O)c2cccnc2)CC[C@H]1CC(=O)NCc1ccc(F)cc1 [CBK289143] | 88.1195
12 | O=S(=O)(NCCc1cccs1)c1cc2c(N3CCNCC3)nccc2s1 [CBK041299C] | 82.3521
13 | Cc1cc(CNC(=O)c2cc3ccc(Cl)cc3[nH]2)[nH]n1 [CBK281391] | 108.853
14 | COc1nccnc1OC1CCN(CCc2ccccc2)CC1 [CBK084258] | 98.8686
15 | CCc1nc2ccc(C(=O)N(C)Cc3ccco3)cn2c1N(C)C(=O)c1ccncc1 [CBK145479] | 86.9948
16 | CSc1nnc2c(n1)OC(/C=C/c1ccccc1)N(C(C)=O)c1ccccc1-2 (centres unmarked) [CBK264453] | 108.048
17 | Cc1ccc(Oc2ccc(NC(=O)Cn3cnnc3C#N)cc2)cc1 [CBK295612] | 102.008
18 | CC(=O)c1cccc(NC(=O)c2cc(S(=O)(=O)N(C)C)ccc2Cl)c1 [CBK265732] | 87.1329
19 | Cc1ccc(-n2ncc3c(=O)n(Cc4ccccc4C)cnc32)c(C)c1 [CBK287695] | 86.3507
20 | CC(C)(C)OC(=O)N1CCC[C@]2(CCC(=O)N2)[C@H]1c1ccc(F)cc1 [CBK283462] | 82.8749
21 | O=[N+]([O-])c1cccc(-c2nc(-c3ccccc3)c(-c3ccc4oc5ccc(-c6[nH]c(-c7cccc([N+](=O)[O-])c7)nc6-c6ccccc6)cc5c4c3)[nH]2)c1 [CBK261433] | 104.634
22 | O=C(O)c1[nH]c2ccccc2c1C(c1c(F)cccc1Cl)c1c(C(=O)O)[nH]c2ccccc12 [CBK267797] | 103.329
23 | CCNc1nc(-c2ccc(S(C)(=O)=O)cc2)cn2ccnc12 [CBK066452] | 105.216
24 | CCCn1cnc2cc(NC(=O)C3CCN(S(=O)(=O)c4ccc(F)cc4)C3)ccc21 (centres unmarked) [CBK285704] | 90.2045
25 | Nc1ccccc1-c1ccccc1NC(=O)C(=O)O [CBK266824] | 93.2467

Row | SMILES | % of control remaining
26 | COC(=O)[C@H]1CN(C(=O)CN2CCCC2=O)C[C@@H]1c1ccc(F)cc1 [CBK283507] | 100.704
27 | O=C(CCCn1c(=O)[nH]c2ccsc2c1=O)Nc1ccc(F)cc1 [CBK287769] | 95.7144
28 | CC(C)(C)c1ccc(S(=O)(=O)N2CCC3(CC2)OCCO3)cc1 [CBK038429] | 60.5601
29 | Cc1cc(=[N+]2CCCCC2)cc(C)o1 [CBK022824I] | 83.4338
30 | CNc1nc(N(C)C)nc(-n2cnc(SCCOc3ccccc3C)n2)n1 [CBK288564] | 77.1098
31 | FC(F)(F)c1cccc(-n2cc(-c3cccnc3)nn2)c1 [CBK113053] | 81.5499
32 | CC(=O)Nc1cccc(NS(=O)(=O)c2ccc(N3CCNCC3)c3ccccc23)c1 [CBK028702C] | 90.7148
33 | Cc1sc(NC(=O)c2ccccc2)c(C(Nc2ccccn2)c2ccc(F)cc2)c1C (centres unmarked) [CBK296957] | 77.233
34 | O=C(CN1CCCCC1)Nc1ccc(NC(=O)CN2CCCCC2)cc1 [CBK265421] | 104.493
35 | CC(C)(C)c1cn(C[C@H]2CC3CCN2C[C@@H]3C(=O)N2CCOCC2)nn1 (some centres unmarked) [CBK288735] | 95.4196
36 | Cc1csc(NC(=O)c2c(C)c(C)n[nH]c2=O)n1 [CBK297759] | 108.036
37 | COc1cccc(NC(=O)CCn2ncc(Cl)c2C)c1 [CBK288012] | 59.5855
38 | COc1ccc(-c2noc(COc3cccc(C(=O)O)c3)n2)c(OC)c1 [CBK298279] | 98.2192
39 | Cc1csc(C2CN(Cc3ccn(C)c(=O)c3)CCO2)n1 (centres unmarked) [CBK305763] | 71.8445
40 | O=C(O)c1ccccc1SC1CC(=O)N(CCc2ccccc2)C1=O (centres unmarked) [CBK269321] | 81.9983
41 | COc1ccc(S(=O)(=O)NC(C)C(=O)NCc2cccnc2)cc1Cl (centres unmarked) [CBK269384] | 114.528
42 | Cc1cnc(NCC2(CO)CCOCC2)nc1N(C)C [CBK307026] | 51.4367
43 | C=CCN1CCC(C(=O)NC(C)c2ccc(OC)c(OC)c2)CC1 (centres unmarked) [CBK148924] | 90.9913
44 | Cc1ccc(Oc2ccc(C(F)(F)F)cc2[N+](=O)[O-])c(Br)c1 [CBK002817] | 115.883
45 | COc1ccc(NC(=O)c2ccc3c(c2)C(=O)N(Cc2ccncc2)C3=O)cc1 [CBK269660] | 101.592
46 | Cc1ncccc1COC(=O)Nc1cnc2ccccc2c1 [CBK200128] | 70.2233
47 | Cc1ccc(NC(C(N)=O)c2c(C)[nH]c(=O)[nH]c2=O)cc1 (centres unmarked) [CBK111355] | 103.358
48 | CC1=CCC2C(=O)N(c3ccccc3)C(=O)C2C1 (centres unmarked) [CBK086490] | 97.4147
49 | CCc1onc(C)c1C(=O)N1CCN(C2CCNC2)CC1 (centres unmarked) [CBK304258] | 52.2686
50 | C=C(C)Cn1c(SCC(C)C)nnc1-c1ccc(O)nc1 [CBK200094] | 77.9356

Source: publication PMC12040169 (PLOS Biology, 2025)
